± gives the standard deviation of the averaged measurements. Some of the results follow.
tested on: PfAP2-LT AP2 domain (GST-tagged); test: gcPBM binding intensity (ln(normalized median fluorescence intensity)); higher = stronger DNA binding
Outline: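 Using an Agilent 4 × 180k array, primer-extended double-stranded 36-bp intergenic genomic probes and negative controls were exposed for 1 h to GST-fused P. falciparum DNA-binding domains expressed in E. coli. Binding was carried out in 1× PBS with 1% milk, 0.2 mg/ml BSA, 0.5% salmon testes DNA and 0.03% Triton X-100, and protein was detected with Alexa488 anti-GST antibody and a 488 nm scan. Binding intensity is the highest Masliner-normalised natural-log median intensity across replicate spots of either probe orientation.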

Row | Sequence | gcPBM binding intensity (ln)
1 | AATAATATATATTACACACGCATCGTTCATTTATTT [CACACA_site2391] | 9.34 ± 0.37
2 | TTTGAAATAAGCAAATGTACATTATTATTAAATATA [XGTACX_site6158] | 8.45 ± 0.4
3 | TTGCCCATTTAATTAACACACAAATGTTTATATTCT [CACACA_site6488] | 9.01 ± 0.49
4 | TGTATGATAACTATAGTGCATTTGGTAATTTTTCCA | 8.6 ± 0.48
5 | TTCACATACAGAAACACACACATATATATAAATTAA [CACACA_site3705] | 9.17 ± 0.34
6 | AAAAAAAAAAAAAAAAAAAAAAAAAAAAAAAAAAAG [CACACA_negctrl_site292] | 8.705 ± 0.035
7 | TCAAGAGTTATATAAACACACATACATACAGACATA [CACACA_site6998] | 9.11 ± 0.3
8 | TAAGAAATTGAGCGCACACATACATCTGTGGGATGG [CACACA_site1548] | 9.39 ± 0.38
9 | ATTGTGGATATTCTTACACACAAATTTATTTATAAA [CACACA_site7267] | 8.63 ± 0.4
10 | TTTTTTTCTTCTTTTCTCTTAAAAATATTGAATATT [CACACA_negctrl_site1762] | 8.27 ± 0.58
11 | ATGTAAATATTTTGTATGCACTTTGATGCATCTTTT | 8.93 ± 0.43
12 | AGTATTCATAAAAATACACACATGGAAAAATAAAAT [CACACA_site1454] | 9.27 ± 0.52
13 | ATATATATATAATAAGTGCAAAAAAAAGAAAAAAAT | 8.99 ± 0.47
14 | GTTTTCTAGTGGGGGTGTACATATTTATATTTAATA [XGTACX_site8378] | 9.88 ± 0.16
15 | AGCAAAAAAAAAAAAAAAAAAAAAATAATAAAAAAT [TGCATGCA_negctrl_site202] | 8.48 ± 0.82
16 | CATATATTAATATGTACACACATTAATAAAAAAAAA [CACACA_site7504] | 8.88 ± 0.46
17 | TTTTTTTTTTTTGAGGTGCATATATCAGATCAATAT | 8.46 ± 0.45
18 | AGCCACTTAAAATACACACACACCAAAAAAAAAAAA [CACACA_site5497] | 9.71 ± 0.49
19 | TATTTTATTTATTGAAGTACATTATACAAAAATAAA [XGTACX_site4824] | 8.14 ± 0.32
20 | AAATAAAATAAAATACGTACCTATTGTGCGTATTAA [XGTACX_site2912] | 8.57 ± 0.43
21 | TAATAAATGTTATTAGTGCATAATAGATAATATATT | 8.75 ± 0.42
22 | ATTTTAACTCCCCTTAATCTATTGTATATATATATA [CACACA_negctrl_site208] | 8.88 ± 0.29
23 | AATAATTTCCAAAAATGTACATATATTTACATATAT [XGTACX_site1790] | 8.81 ± 0.33

Row | Sequence | gcPBM binding intensity (ln)
24 | TATTCGAACAAAAATACATGCACATATGCATAATAA [TGCATGCA_site171] | 8.72 ± 0.42
25 | TTTTCCAGTAAATATTTTTTTATAATATTTATATAT [CACACA_negctrl_site387] | 8.36 ± 0.48
26 | AATGAAAAAAAAAAAAAAAAGAAGAAGCAAATGGTA [TGCATGCA_negctrl_site335] | 8.7 ± 0.52
27 | AGATTATTTGGACATGCATGTAAAAAAATACGTATA [TGCATGCA_site972] | 9.14 ± 0.43
28 | ATAAATAATTATATATGTACACATTATGAATGGATA [XGTACX_site8336] | 8.93 ± 0.38
29 | TATGTGTATTTATTTGCATGTTGGTTGTATTTTTTC [TGCATGCA_site479] | 9.21 ± 0.45
30 | TCTTCATATGTTTACTGTACGAGAAAAAAAAAAAAA [XGTACX_site6418] | 8.33 ± 0.4
31 | TAATAAAATAAAAATTGTACATTTTATATTTATCAA [XGTACX_site5134] | 8.23 ± 0.46
32 | ATTTCCCACTTGTGTGTGCGCATGTGTATATATTTA [GTGCAC_site9949] | 9.74 ± 0.3
33 | TTATTTGTTTGTTGGATGCTTTTTTTTTTTTTTTTT [CACACA_negctrl_site1697] | 8.72 ± 0.49
34 | TACATATATATAATATGTACTTATAATATGTATTTA [XGTACX_site2162] | 8.54 ± 0.4
35 | AAAAGTGATAATAAGAGTACATAAAAAATTTATTAT [XGTACX_site8037] | 8.79 ± 0.47
36 | TATTCTATACTATATTGTACTATAATATAATATACT [XGTACX_site797] | 8.82 ± 0.46
37 | AAATAATTTATAAATAAATACATTGTTACTTTTTCT [GTGCAC_negctrl_site639] | 8.51 ± 0.45
38 | ATTCAAAAAAATAAAATAAACATAAATAAACATAAA [TGCATGCA_negctrl_site390] | 8.62 ± 0.59
39 | ATTTTTTTTTTTTTATGTACATATTAAAAAAAATAT [XGTACX_site1829] | 8.51 ± 0.41
40 | GGTATTACTTTTAGCTGTACTTATTTAAAAGTCAAA [XGTACX_site530] | 8.58 ± 0.49
41 | ATTTTTACTTTTTATGCATGCTATATTTTCAACCAT [TGCATGCA_site871] | 9.16 ± 0.4
42 | TATACATGTTCAATTTGTACATATATAAATATATAT [XGTACX_site3554] | 8.72 ± 0.41
43 | ATTAAGGAAAAATTATGTACACAAAAACATATAACA [XGTACX_site2901] | 8.98 ± 0.42
44 | TCTGAAATTTTAGGGGTGCCTGGGACTAAAGAAACG [GTGCAC_site9785] | 8.44 ± 0.35
45 | AAGAACAGATAAAATCGTACGTGAAACATGAACTTG [XGTACX_site7793] | 9.03 ± 0.48
46 | TAGAAACCATAAAAATGTACTTAAAAATAGACAATT [XGTACX_site5007] | 8.78 ± 0.5

Row | Sequence | gcPBM binding intensity (ln)
47 | ATAAATTCATTATATTGTACAAACAAATGAAAAAAA [XGTACX_site8304] | 8.66 ± 0.54
48 | TTTAATTCCCATATATGTACACAATTTCTTCTATAA [XGTACX_site1465] | 8.65 ± 0.58
49 | AGACTTTTTATGAGCACACACATATATTATGGAGTA [CACACA_site1040] | 9.09 ± 0.33
50 | ATACATAAATATTATTGTACATATATAATATTAATA [XGTACX_site3514] | 8.64 ± 0.31
51 | GGAAAAAGAAATTAATGTACATGTGGATGTATGAGG [XGTACX_site5468] | 9.02 ± 0.48
52 | AAAATTCATCCAACAAGTACATAAATATAATATTAT [XGTACX_site4596] | 8.79 ± 0.45
53 | AAAATATTTAAGCATTGTACATATTTTTACAAATAC [XGTACX_site5349] | 8.68 ± 0.36
54 | AGGTAGAAAAAAGACACACACATTATGTATATATAT [CACACA_site377] | 9.53 ± 0.38
55 | TTATAGGATCAAGCGCGTACATATCTTTATAAAAGA [XGTACX_site5775] | 8.78 ± 0.39
56 | ATATATATATATGTGTGTACATATATGTGGATGGAT [XGTACX_site6240] | 9.64 ± 0.2
57 | AATAACAAAATATTAACACACATAACATATTATAAA [CACACA_site2803] | 8.97 ± 0.43
58 | TTTTTTCATATAAATACATGCACACAAAAATATCAA [TGCATGCA_site602] | 8.74 ± 0.4
59 | TAATGTTTTTTTTGTTTACCAAAAATAATACATTAT [CACACA_negctrl_site203] | 8.36 ± 0.38
60 | ATATACAAATATATATATATATATATATATATATAT [CACACA_negctrl_site886] | 9.77 ± 0.042
61 | GCAAATATGTTGATATGTACATATATATATATATAT [XGTACX_site445] | 9.73 ± 0.057
62 | TATTTCTTTATTGGCACACATTTTTTCAATTATATA [CACACA_site4975] | 9.05 ± 0.39
63 | ATTATTTTAATAAAACGTACAAAATATAAATCAAAA [XGTACX_site3770] | 8.62 ± 0.5
64 | AAAAAATATACATATACACACATATGTATATATAAT [CACACA_site8676] | 9.02 ± 0.36
65 | AGTTTATAGTGATATTGTACATATATATATATATAT [XGTACX_site572] | 9.52 ± 0.057
66 | TTATTTTTGTTTTGAAGTACAAAAAAATATATTCTT [XGTACX_site6416] | 8.24 ± 0.3
67 | AAAATTTATATAAGCACACAAATATATATTTATATC [CACACA_site3291] | 8.74 ± 0.38
68 | TATTTATACTCAACTTTCTGTTATTCCAACTTTTTT [XGTACX_negctrl_site410] | 8.81 ± 0.52
69 | TTATATATTAATAGTAGTACTATATTGAATCACCCC [XGTACX_site2868] | 8.88 ± 0.12

Row | Sequence | gcPBM binding intensity (ln)
70 | ACAACAAAAATAAGCACACACAAATATACATACATA [CACACA_site7664] | 9.71 ± 0.49
71 | TTTTAAATCTTATATTCCCCACATAAATAGCTCTCT [GTGCAC_negctrl_site665] | 8.51 ± 0.54
72 | ACATAAGAACATATTTGTACGTATATAAATTAAATA [XGTACX_site6127] | 8.8 ± 0.45
73 | ATGGACAAAAAATATATACACACGAGGAAACCAACA [CACACA_site3726] | 9.41 ± 0.34
74 | CGTGGGAGCAGACACACACACACACGCATATTTATA [CACACA_site6290] | 9.89 ± 0.45
75 | TTTTGTTTTTACGAATACTTTTTTAATTTTATTTAT [TGCATGCA_negctrl_site395] | 8.59 ± 0.51
76 | CATGCATACTACATCTGTACACATACATTATATTTA [XGTACX_site2495] | 9.06 ± 0.35
77 | AGCATTTTAAAAGAAAAAAAAAAAAAAAAAAAAATA [GTGCAC_negctrl_site723] | 8.32 ± 0.47
78 | ATCTATGTTCCTTTTACACACATAATCTTTTTTTTA [CACACA_site5468] | 9.2 ± 0.49
79 | ATATATATATATTATACACACAAAAATATTTTGTAT [CACACA_site266] | 8.96 ± 0.39
80 | ACGCAATATTAACAAGTGCATTATAACACATAACAT | 8.93 ± 0.24
81 | ATAACATTCTATGTTGCACACAAAGAGAAAAATTTA [CACACA_site9322] | 8.93 ± 0.38
82 | GTAAATTATATAACAAATAAAAATGTACATATATAT [CACACA_negctrl_site408] | 8.88 ± 0.46
83 | AATAAAAAGTAATAATAACGTATAATTTATTATACT [TGCATGCA_negctrl_site414] | 8.6 ± 0.4
84 | TCTTGTTATTTAAATGCATGTTGATTTTAAAAAATT [TGCATGCA_site840] | 8.32 ± 0.43
85 | TATACTTTATATATTTTGTATATATATTTTTTTTAT [TGCATGCA_negctrl_site530] | 8.8 ± 0.48
86 | ATATATATAGATTGTACACACATTTATGCATATATA [CACACA_site3222] | 9.18 ± 0.33
87 | TTTTTTTTTAGAAAAACATGCATGTCCTAAAAATAA [TGCATGCA_site684] | 8.26 ± 0.33
88 | ATATGATAAATTATATGTACTTAAAATATATTATAA [XGTACX_site5904] | 8.47 ± 0.47
89 | TGGCAAAATAGGCACACACACATATACATCTATATT [CACACA_site6626] | 9.73 ± 0.46
